Laboratory results taken from the supplement of paper PMC4967469.

Tests used:
Test in all cases: Viability of human cancer cell lines after 72 h of drug (GDSC screen)
AUY922 = compound: CCNC(=O)c1noc(-c2cc(C(C)C)c(O)cc2O)c1-c1ccc(CN2CCOCC2)cc1 [AUY922]; conditions: top dose 0.256 µM; top dose inferred
Experimental: (§1)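 Human cancer cell lines in 384-well plates, medium with 10% serum, drug for 72 h over a 256-fold dose range (nine 2-fold or five 4-fold steps up to the top dose). Adherent lines were fixed and stained with the nucleic acid dye Syto60, suspension lines read with resazurin; signal relative to control wells, capped at 0 and 100%. One two-parameter sigmoid per drug and line, fitted in a mixed model over all curves with the slope shared within a line.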

KIN001-270 = compound: Cc1ccc(Nc2cc(-c3cccc(N4C(=O)c5ccccc5C4=O)c3)ncn2)cc1NS(C)(=O)=O [KIN001-270]; conditions: top dose 20 µM; top dose inferred
Experimental: as §1

Nilotinib = compound: Cc1cn(-c2cc(NC(=O)c3ccc(C)c(Nc4nccc(-c5cccnc5)n4)c3)cc(C(F)(F)F)c2)cn1 [Nilotinib]; conditions: top dose 2 µM
Experimental: as §1

MP470 = compound: S=C(NCc1ccc2c(c1)OCO2)N1CCN(c2ncnc3c2oc2ccccc23)CC1 [MP470]; conditions: top dose 20 µM; top dose inferred
Experimental: as §1

LFM-A13 = compound: C/C(O)=C(\C#N)C(=O)Nc1cc(Br)ccc1Br [LFM-A13]; conditions: top dose 16 µM; top dose inferred
Experimental: as §1

TW-37 = compound: CC(C)c1ccccc1Cc1cc(C(=O)Nc2ccc(S(=O)(=O)c3ccccc3C(C)(C)C)cc2)c(O)c(O)c1O [TW-37]; conditions: top dose 5 µM
Experimental: as §1

T0901317 = compound: O=S(=O)(c1ccccc1)N(CC(F)(F)F)c1ccc(C(O)(C(F)(F)F)C(F)(F)F)cc1 [T0901317]; conditions: top dose 10.24 µM; top dose inferred
Experimental: as §1

Bicalutamide = compound: CC(O)(CS(=O)(=O)c1ccc(F)cc1)C(=O)Nc1ccc(C#N)c(C(F)(F)F)c1 [Bicalutamide]; conditions: top dose inferred
Experimental: as §1

[1] = top dose 1.024 µM, screen: GDSC drug entry 150
[2] = top dose 10 µM, screen: GDSC drug entry 1502

| Cell Line | AUC (AUY922) | IC50 (AUY922) [nM] | AUC (KIN001-270) | IC50 (KIN001-270) [nM] | AUC (Nilotinib) | IC50 (Nilotinib) [nM] | AUC (MP470) | IC50 (MP470) [nM] | AUC (LFM-A13) | IC50 (LFM-A13) [nM] | AUC (TW-37) | IC50 (TW-37) [nM] | AUC (T0901317) | IC50 (T0901317) [nM] | AUC (Bicalutamide; [1]) | IC50 (Bicalutamide; [1]) [nM] | AUC (Bicalutamide; [2]) | IC50 (Bicalutamide; [2]) [nM] |
| --- | --- | --- | --- | --- | --- | --- | --- | --- | --- | --- | --- | --- | --- | --- | --- | --- | --- | --- |
| 22RV1 (prostate, adherent) | 0.56 | 24.2 | 0.981 | > 20000 | 0.979 | > 2000 | 0.929 | > 20000 | 0.96 | > 16000 | 0.687 | 1200 | 0.977 | > 10200 | – | – | – | – |
| AsPC-1 (pancreas, adherent) | 0.947 | > 256 | 0.974 | > 20000 | 0.964 | > 2000 | 0.973 | > 20000 | 0.961 | > 16000 | 0.648 | 1080 | 0.964 | > 10200 | 0.974 | > 1020 | 0.928 | > 10000 |
| BT-483 (breast, adherent) | 0.977 | > 256 | 0.967 | > 20000 | 0.974 | > 2000 | 0.875 | > 20000 | 0.977 | > 16000 | 0.845 | > 5000 | 0.97 | > 10200 | 0.977 | > 1020 | 0.975 | > 10000 |
| BxPC-3 (pancreas, adherent) | 0.658 | 46.6 | 0.983 | > 20000 | 0.984 | > 2000 | 0.966 | > 20000 | 0.914 | > 16000 | 0.788 | – | 0.961 | > 10200 | 0.983 | > 1020 | 0.974 | > 10000 |
| CAL-72 (osteosarcoma, adherent) | 0.874 | > 256 | 0.984 | > 20000 | 0.982 | > 2000 | 0.601 | 2490 | 0.98 | > 16000 | 0.697 | 1240 | 0.978 | > 10200 | 0.979 | > 1020 | 0.947 | > 10000 |
| CAL-120 (breast, adherent) | 0.599 | 32.3 | 0.954 | > 20000 | 0.974 | > 2000 | 0.945 | > 20000 | 0.954 | > 16000 | 0.583 | 564 | 0.98 | > 10200 | 0.98 | > 1020 | 0.948 | > 10000 |
| CCF-STTG1 (glioma, adherent) | 0.385 | 7.68 | 0.961 | > 20000 | 0.985 | > 2000 | 0.988 | > 20000 | 0.98 | > 16000 | 0.721 | 1330 | – | – | 0.939 | > 1020 | 0.987 | > 10000 |
| Capan-2 (pancreas, adherent) | 0.52 | 18.4 | 0.985 | > 20000 | 0.985 | > 2000 | 0.977 | > 20000 | 0.952 | > 16000 | 0.847 | 4930 | 0.984 | > 10200 | 0.985 | > 1020 | 0.982 | > 10000 |
| HCC38 (breast, adherent) | 0.569 | 25.2 | 0.973 | > 20000 | 0.986 | > 2000 | 0.969 | > 20000 | 0.986 | > 16000 | 0.59 | 562 | 0.984 | > 10200 | 0.978 | > 1020 | 0.985 | > 10000 |
| HCC70 (breast, adherent) | 0.697 | 56.7 | 0.987 | > 20000 | 0.938 | > 2000 | 0.97 | > 20000 | 0.921 | > 16000 | 0.624 | 683 | 0.988 | > 10200 | 0.985 | > 1020 | 0.972 | > 10000 |
| HCC202 (breast, adherent) | 0.735 | 99.9 | 0.928 | > 20000 | 0.98 | > 2000 | – | – | 0.857 | > 16000 | 0.96 | > 5000 | – | – | 0.967 | > 1020 | 0.965 | > 10000 |
| HCC1937 (breast, adherent) | 0.655 | 46.1 | 0.96 | > 20000 | 0.95 | > 2000 | 0.956 | > 20000 | 0.978 | > 16000 | 0.706 | 1310 | 0.984 | > 10200 | 0.985 | > 1020 | 0.983 | > 10000 |
| HOS (osteosarcoma, adherent) | 0.335 | 6.06 | 0.992 | > 20000 | 0.937 | > 2000 | 0.992 | > 20000 | 0.978 | > 16000 | 0.283 | 86.1 | 0.991 | > 10200 | 0.992 | > 1020 | 0.972 | > 10000 |

A lower IC50 marks a more sensitive line; a limit (>, <) means that the fit lies beyond the doses tested. AUC, from the same fit, is the share of area under the viability curve across the 256-fold dose range: 1 means no effect, lower means more sensitive. For some of these results: An inferred top dose is not printed in the source and was worked back from the curve model. For some of these results: An entry number marks a drug with two screens in the source, which often give different values.
